Molecular target: T1, Sheep Fc-CD52 fusion protein (Absolute Antibody Cat. No. PR00205) (human, UniProt P31358 25-36)
T1 construct: bought; also called CD52 antigen; human CD52; not shown: sheep Fc
Assay: ELISA, antigen coated, antibody 5 µg/mL

| Mean Absorbance [absorbance] | Binder |
| --- | --- |
| 1.24 | anti-CD52 human IgG1 L234A/L235A (LALA) (antibody, also called 4-65; copies: 2 + 2) heavy: QVQLQESGPGLVRPSQTLSLTCTVSGFTFTDFYMNWVRQPPGRGLEWIGFIRDKAKGYTTEYNPSVKGRVTMLVDTSKNQFSLRLSSVTAADTAVYYCAREGHTAAPFDYWGQGSLVTVSS[letters of human IgG1 constant region with changes omitted] light: DIQMTQSPSSLSASVGDRVTITCKASQNIDKYLNWYQQKPGKAPKLLIYNTNNLQTGVPSRFSGSGSGTDFTFTISSLQPEDIATYYCLQHISRPRTFGQGTKLEIKRTVAAPSVFIFPPSDEQLKSGTASVVCLLNNFYPREAKVQWKVDNALQSGNSQESVTEQDSKDSTYSLSSTLTLSKADYEKHKVYACEVTHQGLSSPVTKSFNRGEC |
| 1.36 | anti-CD52 human IgG1 N297Q (aglycosyl) (antibody, also called 4-67; copies: 2 + 2) heavy: QVQLQESGPGLVRPSQTLSLTCTVSGFTFTDFYMNWVRQPPGRGLEWIGFIRDKAKGYTTEYNPSVKGRVTMLVDTSKNQFSLRLSSVTAADTAVYYCAREGHTAAPFDYWGQGSLVTVSS[letters of human IgG1 constant region with changes omitted] light: DIQMTQSPSSLSASVGDRVTITCKASQNIDKYLNWYQQKPGKAPKLLIYNTNNLQTGVPSRFSGSGSGTDFTFTISSLQPEDIATYYCLQHISRPRTFGQGTKLEIKRTVAAPSVFIFPPSDEQLKSGTASVVCLLNNFYPREAKVQWKVDNALQSGNSQESVTEQDSKDSTYSLSSTLTLSKADYEKHKVYACEVTHQGLSSPVTKSFNRGEC |
| 1.35 | anti-CD52 human IgG1 L234A/L235A/P329G (LALAPG reference) (antibody, also called 4-66; copies: 2 + 2) heavy: QVQLQESGPGLVRPSQTLSLTCTVSGFTFTDFYMNWVRQPPGRGLEWIGFIRDKAKGYTTEYNPSVKGRVTMLVDTSKNQFSLRLSSVTAADTAVYYCAREGHTAAPFDYWGQGSLVTVSSASTKGPSVFPLAPSSKSTSGGTAALGCLVKDYFPEPVTVSWNSGALTSGVHTFPAVLQSSGLYSLSSVVTVPSSSLGTQTYICNVNHKPSNTKVDKKV[letters of human IgG1 Fc with changes omitted] light: DIQMTQSPSSLSASVGDRVTITCKASQNIDKYLNWYQQKPGKAPKLLIYNTNNLQTGVPSRFSGSGSGTDFTFTISSLQPEDIATYYCLQHISRPRTFGQGTKLEIKRTVAAPSVFIFPPSDEQLKSGTASVVCLLNNFYPREAKVQWKVDNALQSGNSQESVTEQDSKDSTYSLSSTLTLSKADYEKHKVYACEVTHQGLSSPVTKSFNRGEC |
